# Laboratory results as given in US10004803B2, “Low, immune enhancing, dose mtor inhibitors and uses thereof” (Novartis AG, priority 2013, dated 2018).
# Assay: Questionnaires on energy and exercise ability one year after dosing
# Details: 0.5 mg daily cohort
structure (smiles),measurement,value
"CO[C@H]1C[C@@H]2CC[C@@H](C)[C@@](O)(O2)C(=O)C(=O)N2CCCC[C@H]2C(=O)O[C@H]([C@H](C)C[C@@H]2CC[C@@H](OCCO)[C@H](OC)C2)CC(=O)[C@H](C)/C=C(\C)[C@@H](O)[C@@H](OC)C(=O)[C@H](C)C[C@H](C)/C=C/C=C/C=C/1C [RAD001, (1R,9S,12S,15R,16E,18R,19R,21R,23 S,24E,26E,28E,30S,32S,35R)-1,18-dihydroxy-12-{(1R)-2-[(1 S,3R,4R)-4-(2-hydroxyethoxy)-3-methoxycyclohexyl]-1-methylethyl}-19,30-dimethoxy-15,17,21,23,29,35-hexamethyl-11,36-dioxa-4-aza-tricyclo[30.3.1.04,9]hexatriaconta-16,24,26,28-tetraene-2,3,10,14,20-pentaone]",self-reported energy and exercise ability as compared to placebo,increased energy and exercise ability
